Experimental data published in US20230398151A1 (published 2023).

B1: 7t15-TGFRs (IL-7/TF/IL-15 with TGFβ Receptor II/IL-15RαSu) (other)
chain 1: not shown
chain 2: IPPHVQKSVNNDMIVTDNNGAVKFPQLCKFCDVRFSTCDNQKSCMSNCSITSICEKPQEVCVAVWRKNDENITLETVCHDPKLPYHDFILEDAASPKCIMKEKKKPGETFFMCSCSSDECNDNIIFSEEYNTSNPDGGGGSGGGGSGGGGSIPPHVQKSVNNDMIVTDNNGAVKFPQLCKFCDVRFSTCDNQKSCMSNCSITSICEKPQEVCVAVWRKNDENITLETVCHDPKLPYHDFILEDAASPKCIMKEKKKPGETFFMCSCSSDECNDNIIFSEEYNTSNPDITCPPPMSVEHADIWVKSYSLYSRERYICNSGFKRKAGTSSLTECVLNKATNVAHWTTPSLKCIR
B2: 2t2 (IL-2/TF/IL-2 single-chain chimeric polypeptide) (other)
chain: [about 150 residues left out]SGTTNTVAAYNLTWKSTNFKTILEWEPKPVNQVYTVQISTKSGDWKSKCFYTTDTECDLTDEIVKDVKQTYLARVFSYPAGNVESTGSAGEPLYENSPEFTPYLETNLGQPTIQSFEQVGTKVNVTVEDERTLVRRNNTFLSLRDVFGKDLIYTLYYWKSSSSGKKTAKTNTNEFLIDVDKGENYCFSVQAVIPSRTVNRKSTDSPVECMGQEKGEFRE[about 150 residues left out]
B3: 15t15 (IL-15/TF/IL-15 single-chain chimeric polypeptide) (other)
chain: [about 120 residues left out]SGTTNTVAAYNLTWKSTNFKTILEWEPKPVNQVYTVQISTKSGDWKSKCFYTTDTECDLTDEIVKDVKQTYLARVFSYPAGNVESTGSAGEPLYENSPEFTPYLETNLGQPTIQSFEQVGTKVNVTVEDERTLVRRNNTFLSLRDVFGKDLIYTLYYWKSSSSGKKTAKTNTNEFLIDVDKGENYCFSVQAVIPSRTVNRKSTDSPVECMGQEKGEFRE[about 120 residues left out]
B4: TGFRt15-16s21 (TGFR/TF/IL-15:CD16scFv/IL-15RαSu/IL-21 protein complex) (other)
chain 1: IPPHVQKSVNNDMIVTDNNGAVKFPQLCKFCDVRFSTCDNQKSCMSNCSITSICEKPQEVCVAVWRKNDENITLETVCHDPKLPYHDFILEDAASPKCIMKEKKKPGETFFMCSCSSDECNDNIIFSEEYNTSNPDGGGGSGGGGSGGGGSIPPHVQKSVNNDMIVTDNNGAVKFPQLCKFCDVRFSTCDNQKSCMSNCSITSICEKPQEVCVAVWRKNDENITLETVCHDPKLPYHDFILEDAASPKCIMKEKKKPGETFFMCSCSSDECNDNIIFSEEYNTSNPDSGTTNTVAAYNLTWKSTNFKTILEWEPKPVNQVYTVQISTKSGDWKSKCFYTTDTECDLTDEIVKDVKQTYLARVFSYPAGNVESTGSAGEPLYENSPEFTPYLETNLGQPTIQSFEQVGTKVNVTVEDERTLVRRNNTFLSLRDVFGKDLIYTLYYWKSSSSGKKTAKTNTNEFLIDVDKGENYCFSVQAVIPSRTVNRKSTDSPVECMGQEKGEFRE[about 120 residues left out]
chain 2: not shown
B5: 18t15-12s (IL-18/TF/IL-15:IL-12/IL-15RαSu protein complex) (other)
chain 1: not shown
chain 2: IWELKKDVYVVELDWYPDAPGEMVVLTCDTPEEDGITWTLDQSSEVLGSGKTLTIQVKEFGDAGQYTCHKGGEVLSHSLLLLHKKEDGIWSTDILKDQKEPKNKTFLRCEAKNYSGRFTCWWLTTISTDLTFSVKSSRGSSDPQGVTCGAATLSAERVRGDNKEYEYSVECQEDSACPAAEESLPIEVMVDAVHKLKYENYTSSFFIRDIIKPDPPKNLQLKPLKNSRQVEVSWEYPDTWSTPHSYFSLTFCVQVQGKSKREKKDRVFTDKTSATVICRKNASISVRAQDRYYSSSWSEWASVPCSGGGGSGGGGSGGGGSRNLPVATPDPGMFPCLHHSQNLLRAVSNMLQKARQTLEFYPCTSEEIDHEDITKDKTSTVEACLPLELTKNESCLNSRETSFITNGSCLASRKTSFMMALCLSSIYEDLKMYQVEFKTMNAKLLMDPKRQIFLDQNMLAVIDELMQALNFNSETVPQKSSLEEPDFYKTKIKLCILLHAFRIRAVTIDRVMSYLNASITCPPPMSVEHADIWVKSYSLYSRERYICNSGFKRKAGTSSLTECVLNKATNVAHWTTPSLKCIR
notes: Secreted from CHO-K1 cells; used as negative control on CD16b cells; also called 18t15-12s complex

Columns and labels:
[1] = target: IL-2Rβ and common γ chain on 32Dβ cells; test: cell-based or functional assay
human CD16b = target: T1, human CD16b (human, UniProt O75015 17-200); test: flow cytometry on CHO cells stably expressing CD16b; detection with biotinylated anti-human tissue factor and PE streptavidin
T1 construct: whole, on cells; also called CHO cells expressing human CD16b

Chain of human CD16b (O75015 17-200): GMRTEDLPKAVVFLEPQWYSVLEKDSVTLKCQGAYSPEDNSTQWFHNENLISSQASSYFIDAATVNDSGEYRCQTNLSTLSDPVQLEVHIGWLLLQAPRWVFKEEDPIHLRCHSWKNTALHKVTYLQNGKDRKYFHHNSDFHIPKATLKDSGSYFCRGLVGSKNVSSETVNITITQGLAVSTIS

Binder	EC50 of 32Dβ cell proliferation (WST1) [1] [nM]	binding result (human CD16b)
B1	126	–
B2	0.158	–
B3	0.161	–
B4	51.3	–
B5	–	no binding (tested: 1.2 µg/mL)
